Test results as given in PubChem BioAssay AID1745853 (National Center for Advancing Translational Sciences (NCATS), 2022).
This is one part of the list. Shown are side measurements of this screen, not its main read-out; they come without a call.

Columns and labels:
Assay in all cases: Primary Screen for Target Class Profiling of Small Molecule Inhibitors of Methyltransferases
[1] = target: Glycine N-methyltransferase (Homo sapiens) (UniProt Q14749); conditions: purified enzyme, MTase-Glo SAH luminescence; measured here: GNMT inhibition; at 40 µM; stronger effect = lower value
In short: (§1)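 Each enzyme was assayed with SAM and its substrate. SAH formation detected by MTase-Glo luminescence; single-point 40 uM screen[…].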

[2] = target: Guanidinoacetate N-methyltransferase (Homo sapiens) (UniProt Q14353); conditions: purified enzyme, MTase-Glo SAH luminescence; measured here: GAMT inhibition; at 40 µM; stronger effect = lower value
In short: as §1

[3] = target: Histamine N-methyltransferase (Homo sapiens) (UniProt P50135); conditions: purified enzyme, MTase-Glo SAH luminescence; measured here: HNMT inhibition; at 40 µM; stronger effect = lower value
In short: as §1

[4] = target: Nicotinamide N-methyltransferase (Homo sapiens) (UniProt P40261); conditions: purified enzyme, MTase-Glo SAH luminescence; measured here: NNMT inhibition; at 40 µM; stronger effect = lower value
In short: as §1

[5] = target: Phenylethanolamine N-methyltransferase (Homo sapiens) (UniProt P11086); conditions: purified enzyme, MTase-Glo SAH luminescence; measured here: PNMT inhibition; at 40 µM; stronger effect = lower value
In short: as §1
% is set by controls: 0 for no effect and ±100 for the full control effect.

| Structure (SMILES) | activity change, negative = inhibition [1] | activity change, negative = inhibition [2] | activity change, negative = inhibition [3] | activity change, negative = inhibition [4] | activity change, negative = inhibition [5] |
| --- | --- | --- | --- | --- | --- |
| Cn1cc(-c2ccncc2)c(-c2ccc(OCc3ccc4ccccc4n3)cc2)n1 | -27.8% | -10.8% | -13.8% | -48.4% | -13.2% |
| CN(CCc1ccccn1)[C@@H]1[C@H](O)[C@H](CO)O[C@@H]1CNC(=O)c1ccc(C(F)(F)F)cc1 | -4.41% | -7.61% | -6.59% | -5.8% | -3.79% |
| COC(=O)c1ccc(C2Nc3c(C)cc(C)cc3C3C=CCC32)cc1 (configuration not stated) | -9.42% | -5.27% | -10.4% | -20.7% | -13.6% |
| C=CCNC(=O)N[C@H]1[C@H](O)[C@@H](N2CCC(Cc3ccccc3)CC2)[C@@H]2OC[C@H]1O2 | -3.79% | -4.87% | -4.75% | -9.09% | -5.93% |
| CN1[C@@H]2CC[C@H]1CC(OC(c1ccccc1)c1ccccc1)C2 (some centres not stated) | 6.92% | 9% | -27.8% | -14.4% | 5.83% |
| CCN1CCC(n2cc(CNc3cc(Cl)c4ncc(C#N)c(Nc5ccc(F)c(Cl)c5)c4c3)nn2)CC1 | -87.6% | -86.3% | -93.9% | -93.1% | -94.6% |
| CC(C)CNC(=O)C1CC(c2ccccc2F)=NO1 (configuration not stated) | -0.807% | 0.772% | 1.88% | -1.89% | 2.38% |
| Cc1ccc(NC(=O)N2C[C@@H](F)C[C@H]2C(=O)N2CCCCC2)cc1F | -5.39% | -0.679% | 1.52% | -4.72% | -0.265% |
| CCNC(=O)N1CCC(Cc2ccc(C(=O)O)cc2)CC1 | -3.03% | -0.183% | 1.04% | -0.556% | -5.08% |
| CC(C)CN1CCN(C(=O)c2ccc3c(c2)N(S(C)(=O)=O)CC3)CC1 | -0.906% | -0.785% | -7.07% | -4.8% | -0.477% |
| CN(C)C[C@@H]1CN(c2ccncn2)C[C@H]1NC(=O)Cc1cccs1 | -3.64% | -3.07% | 0.124% | -6.28% | -10.2% |
| O=C(O)c1ccc2c(c1)C1C=CCC1C(c1cccc(F)c1)N2 (configuration not stated) | -47.9% | -7.81% | -0.174% | 0.272% | -17.8% |
| CCCn1c(C)cnc1C1CCN(S(=O)(=O)c2cn(C)cn2)C1 (configuration not stated) | -0.563% | 1.5% | 0.311% | -0.611% | 2.09% |
| Cc1noc(-c2ccc(C(C)(C)C)cc2)c1C(=O)NCCOc1ccccc1 | -8.66% | -7% | -3.46% | -17.3% | -8.18% |
| O=C(/C=C/c1cccnc1)c1ccncc1 |  | 3.31% |  | -17.3% | -7.91% |
| CCc1nc2c(=O)n(CC(=O)NC(C)c3ccc(F)cc3)nc(C)c2s1 (configuration not stated) | -2.86% | -3.22% | -1.2% | -4.54% | -5.44% |

| Structure (SMILES) | activity change, negative = inhibition [1] | activity change, negative = inhibition [2] | activity change, negative = inhibition [3] | activity change, negative = inhibition [4] | activity change, negative = inhibition [5] |
| --- | --- | --- | --- | --- | --- |
| CSc1cccc(NC(=O)N2CCn3cccc3C2C(C)C)c1 (configuration not stated) | 1.6% | 0% | -0.832% | -6.25% | 0.971% |
| Cn1cc(C2=C(c3c4n(c5ccccc35)CCC(CN)C4)C(=O)NC2=O)c2ccccc21 (configuration not stated) | -24.5% |  | -10.5% | -7.62% | 28.7% |
| CC1(C)CCC(C)(C)c2cc(C#Cc3ccc(C(=O)O)cc3)ccc21 | -35.7% | 1.73% | -10.6% | -61.3% | -2.76% |
| CC1CCC(NC(=O)C2(C)Cn3c(cc4occc43)C(=O)N2Cc2ccccc2Br)CC1 (configuration not stated) | -0.873% | 0% | 4.2% | 5.12% | 3.59% |
| Cc1noc(C)c1C(=O)N1CCC2(CC1)C(=O)NCN2C(=O)Cc1ccccc1 | -1.68% | -4.04% | -2.12% | 1.3% | 1.09% |
| NC(Cc1c[nH]c2ccccc12)C(=O)O (configuration not stated) | -5.92% | 3.11% | -5.38% | -0.971% | -3.64% |
| Cc1ccc2nc(CN(C)C(=O)C3CCC(=O)N(C4CCCCCC4)C3)[nH]c2c1 (configuration not stated) | -3.66% | -6.44% | -1.42% | -15.6% | -50.4% |
| c1ccc(-n2cncn2)c(Cn2ccnc2-c2cc3n(n2)CCCNC3)c1 | -0.654% | 1.32% | 0.547% | -0.561% | 1.3% |
| CCC1c2ccc(C)n2CCN1C(=O)Nc1ccc(Br)cc1 (configuration not stated) | -1.86% | -19.7% | -1.06% | -6.79% | -6.37% |
| O=c1[nH]c2ccc(S(=O)(=O)N3CCN(c4ccc(F)cc4)CC3)cc2[nH]1 | 11.9% | 2.83% | 12.2% | -1.21% | 6.47% |
| CCCCN1C(=O)c2cc(C(=O)N3CCN(c4ccccn4)CC3)nn2CC1(C)C(=O)NC1CCCC1 (configuration not stated) | 1.51% | 3% | 1.17% | -0.488% | -0.646% |
| CCN1C(=O)c2cc(C(=O)Nc3ccc(F)cc3)nn2CC1(C)C(=O)NC1CCCC1 (configuration not stated) | 0.215% | -0.868% | -5.48% | 1.51% | 0.603% |
| COc1ccc(C)cc1NC(=O)Cn1c(=O)c2ccc(Cl)cc2n2nncc12 | -1.45% | 0.254% | 7.75% | -1.26% | 1.78% |
| Cc1ccc(NC(=O)CCc2nnc3n(CC(C)C)c(=O)c4ccccc4n23)cc1C | 5.08% | 0% | 7.45% | -9.73% | -4.03% |
| CCCNC(=O)N1CC[C@@H]2[C@H]1C(=O)N(c1cccc(F)c1)C(=O)N2Cc1cccs1 | -5.11% | -10.6% | -5.48% | -9.4% | -7.73% |
